Laboratory results from the supplement of paper PMC10126150.
Values marked as one replicate rest on one cluster of the flow cell; about a third of the high ones do not repeat.

System: ATP
Assay: switch fluorescence ratio, 500 uM ATP over buffer (Cy3 cluster intensity, sum of 5 cycles each) (fold (ratio)); higher = stronger signal-on switching upon ATP binding; sequences stand for … in TCGTCGGCAGCGTCAGATGTGTATAAGAGACAGTTTTTTTTTTTTTTTTTTTTTTTTT…TC
Details: aptamer strand: ATP DNA aptamer (quencher-CACCTGGGGGAGTATTGCGGAGGAAGG + anchor), 100 nM annealed; ATP concentration: 500 uM; one replicate
Summary of the method: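 After annealing to 100 nM quencher-labelled ATP aptamer, Cy3-labelled switching-strand clusters on a modified Illumina MiSeq flow-cell were imaged in selection buffer. A second image followed after 15 min with 500 uM ATP at 22 °C, and five such buffer/ATP cycles were done, each separated by NaOH stripping and re-annealing. The fluorescence ratio, averaged per switch-domain sequence, is summed target-cycle over summed buffer-cycle Cy3 intensity per cluster, with clusters outside 100-1000 RFU excluded.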
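Note: ATP exposure 15 min at 22 °C before imaging.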

| Sequence | switch fluorescence ratio |
| --- | --- |
| AGTTCTTTTT | 1.04 |
| AAATTGAAGT | 1.02 |
| CGTGTTAAG | 0.984 |
| TATGCCGGTG | 1.03 |
| CCGCGCCTTG | 1.25 |
| TCGCAGGTAA | 1.13 |
| TCACGTGCTG | 0.986 |
| GAAAGAGTCG | 0.923 |
| CATGGGCTTT | 0.999 |
| TAGGATCCTA | 1.01 |
| GGGGTGTCCG | 1.02 |
| GTGCTCCT | 1.01 |
| CTAAGTTAGC | 1.01 |
| TTTCTCTCCT | 1.55 |
| TGTTGTTGCT | 0.955 |
| ACACTCTGAT | 0.975 |
| TGGATTGAGG | 0.983 |
| GGAGCACTG | 1.22 |
| TTGCCGTGTC | 0.982 |
| CATTTGGTTC | 0.951 |
| ATGATCATGT | 1.01 |
| CCGGCGTTGG | 1.08 |
| TAGTCAACAA | 1.01 |
| TGGGTCTGGA | 1.03 |
| GGGGGCCAAC | 0.99 |
| GAATTAGTTG | 0.953 |

| Sequence | switch fluorescence ratio |
| --- | --- |
| ATTTCGGTTT | 0.965 |
| TCAGTAGGAC | 1.04 |
| TACCCGCATG | 2.83 |
| ATATGGCCTT | 1.02 |
| GCGTGATCTA | 0.98 |
| TGAGGCATCA | 1.04 |
| TGCAGTTGGA | 0.999 |
| TGAGCCGTTA | 0.996 |
| TGTTCTTCAG | 1.02 |
| ACTTTCGGGG | 1.01 |
| TATTGGTCTT | 1 |
| TGATTAGTTC | 0.994 |
| ACATATTGTC | 0.968 |
| TGGCATTGCT | 0.991 |
| TATCACTATT | 0.99 |
| GGTCGTGGGC | 0.915 |
| TCGTTGGGA | 0.995 |
| TTAGATTTGG | 1.01 |
| GTTTGACGTC | 0.946 |
| TTGTTTCCTC | 1.05 |
| TTAAAATGCG | 1.06 |
| ACCCGTATAT | 1.23 |
| AATTACTCAA | 1.01 |
| GAGGTGGTTG | 1.08 |
| TTAAGATGTC | 1 |
| AATAAAGGAC | 0.968 |

| Sequence | switch fluorescence ratio |
| --- | --- |
| AAATTTCCTA | 1 |
| CGGTCTTGGA | 1.01 |
| TATGGACCAA | 0.965 |
| TTAGTTCCGG | 1.03 |
| CAATGTATTA | 0.998 |
| AGGGGCTAGT | 0.991 |
| GAATAGTT | 0.968 |
| TATAATCTCG | 0.998 |
| GAACTGCTCG | 0.97 |
| ATGAAGACG | 1.12 |
| GCGGGAGTCA | 1.01 |
| AAAAAAGTT | 1.05 |
| TATCAGGAAT | 0.974 |
| CGGATCTCTG | 0.989 |
| TTTCCGTGGG | 0.991 |
| CCGCGGGTAG | 1.14 |
| GTTGGACCTT | 1.25 |
| AACTACTTAA | 0.972 |
| TTATAACTGA | 0.963 |
| TATCGCGAGC | 0.953 |
| AGGTGAGCCA | 0.98 |
| AAAAACTTTG | 1.01 |
| CGACGTTTG | 1.03 |
| CTGGTAATTA | 0.976 |
| CTTTAAATCA | 0.979 |
| AATATTAATT | 1.01 |

| Sequence | switch fluorescence ratio |
| --- | --- |
| ATAAGGAAAT | 1.04 |
| CCACTAGATT | 1.07 |
| CATGTGGTTT | 0.943 |
| TGGGGCTGGG | 0.989 |
| GACAAGGAGA | 0.991 |
| GACGATCTGG | 1.03 |
| GAGATAACCG | 0.959 |
| GTTCATTCCT | 1.06 |
| CCATATT | 1.01 |
| GGATTTTGAC | 1.02 |
| GTAGGGCGGA | 0.987 |
| GGCACTCAAG | 1 |
| GCCGCCCTGT | 1.19 |
| GACCTGTCAG | 0.998 |
| GACGCGAGTC | 1.16 |
| GATTTTTAAG | 1.02 |
| TCACAGCGAT | 2 |
| TGAGGCGAAA | 1.04 |
| AATTTATGCC | 0.983 |
| TTTATAGTCG | 0.971 |
| GTCAGATGTT | 0.967 |
| ACATGCTTAG | 0.975 |
| ATGCCTGAAG | 0.948 |
| TTGAAAAATA | 0.954 |
| CGAGGACTTT | 0.953 |
| CGTCTGAT | 0.99 |

| Sequence | switch fluorescence ratio |
| --- | --- |
| TACATCTTAG | 1 |
| TTTGTGCAAC | 0.971 |
| CCGATTTGCG | 1.06 |
| GCTGTGACGC | 1.02 |
| GGCTGTAAAA | 1.01 |
| GGCGAAGCTG | 1.03 |
| AAGCGCAGTT | 1.01 |
| TCGAAAGGTG | 1.21 |
| TATATGGGAC | 1.05 |
| TGCATCTACA | 0.999 |
| TTCAGACGAC | 1.11 |
| AGTTTACACT | 1.03 |
| TAGAATATTT | 1.02 |
| CTGGTAAAAT | 0.987 |
| ATATGCCTGG | 1.02 |
| GTGGACGTAA | 1.12 |
| ACGGGGCCTT | 1.01 |
| GAAATGCCTA | 0.989 |
| TGTCGTATAA | 1.02 |
| TTGAGTTCAC | 0.94 |
| ACCTATGATA | 1.04 |
| AATATATCTA | 0.999 |
| GAGTCTGGAG | 1.02 |
| GAGGGGCTT | 1.02 |
| ATCGCGAAGC | 0.968 |
| TACACGGGTC | 1.02 |

| Sequence | switch fluorescence ratio |
| --- | --- |
| GAGATCGGCT | 1.07 |
| TGCTTGTGTC | 1.03 |
| ATTAAGAGCT | 1.01 |
| TTGCCCAACG | 1 |
| GGTATACGAT | 0.977 |
| CATATGTACC | 1.08 |
| CTTCCAGATC | 1.17 |
| TAATCGACGG | 0.982 |
| TCATCTGAC | 1.13 |
| CGGTGACATA | 1.02 |
| GATGTTGGTG | 1.04 |
| CGCGCCACCG | 1.05 |
| CCCAGAAGC | 1.03 |
| TAAATTACGT | 1.43 |
| TCTCTAAATG | 1.11 |
| CACGATTTTG | 0.986 |
| CAGGGATCTA | 0.985 |
| GCATAAGTA | 1.01 |
| GGCACCAGCT | 0.974 |
| TATAAGGCAT | 0.964 |
| TAGATTTAC | 0.98 |
| AAGTAGATCG | 0.976 |
| ACGTGGGTAT | 1.01 |
| ACTGCGGA | 1.07 |
| CGTGGAGAAA | 1.01 |
| ACTCATTCGT | 1.03 |

| Sequence | switch fluorescence ratio |
| --- | --- |
| CCGTTAAAGT | 1.03 |
| AATGCAGGGG | 1.11 |
| TTTTAGCAGG | 1.02 |
| CGAGCGCCGG | 0.94 |
| GGGAATATCT | 0.972 |
| CCCAACCCTG | 1.01 |
| ACTCCGGGGT | 2.27 |
| TGGGCGTCGA | 0.991 |
| TTTTCGTGTA | 0.944 |
| TATGGATACA | 1 |
| CTTTGAATAC | 2.35 |
| TGAACTTCTG | 1.01 |
| GGTACGGTCG | 1.03 |
| GTAAAAGGCA | 1.01 |
| AGTACTTTCG | 0.974 |
| GAATACCCAA | 1.05 |
| TTGAAAGGAC | 1.03 |
| CCTGCTCAGT | 1.16 |
| TTACTCTTTT | 1.03 |
| ATCTTCGCTC | 1.44 |
| CCATAGACGG | 0.947 |
| GCGGTTTAAC | 1.02 |
| AGTGAAACGG | 1.03 |
| GGACTTTTG | 1.02 |
| CGTGCGATAA | 1.54 |
| TGTGTGTCGG | 0.941 |

| Sequence | switch fluorescence ratio |
| --- | --- |
| AGACCGGAA | 1.15 |
| TCGGACTTGA | 0.932 |
| ACCAGCTTGA | 1.05 |
| GGAGGTCGGC | 1.01 |
| GGTAAACGGG | 0.974 |
| TTTTCGGTTG | 0.964 |
| GTAGGCGCTT | 0.99 |
| GGGTATCATG | 0.957 |
| AGGGTAATG | 1.01 |
| CAGTGCTCTT | 0.988 |
| TTCTAATTGC | 0.977 |
| AGAGTAGGCC | 1.01 |
| AGTACACCAG | 1.07 |
| GCATCTGAGC | 1.02 |
| TTTTGTCGGG | 0.979 |
| ACGTCGTTCG | 0.993 |
| GAAGTAATTG | 0.988 |
| GCGCAATCGA | 3.2 |
| TTGTTAAAGA | 0.968 |
